According to PubChem BioAssay AID504706 (National Center for Advancing Translational Sciences (NCATS), 2011):
In all, about 320,000 compounds went through this assay and about 200 (0.062%) were called active. Inconclusive results, whose numbers are uncertain, are shown with a selection of clear calls. Calls come from the whole dose curve; as a rule, active = well fitted activation curve with a large enough effect; inconclusive = small, poorly fitted or top-dose-only effect; inactive = no such curve, though single readings can be large or run the other way. No potency is given beside an inconclusive call; the fits are too rough.

assay: qHTS assay for re-activators of p53 using a Luc reporter; conditions: H1299 p53-A138V BP100-luciferase reporter, luminescence, 24 h; series mostly up to 92.2 µM; note: nearly all actives have a fitted effect of over 45% in size
How it was run: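 p53-null H1299 cells stably carrying temperature-sensitive p53-A138V and a BP100-luciferase reporter were pinned with compounds (4-point, 1:5 series) and held 24 hrs at 37 deg C. Luminescence was read 10 min after detection reagent.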
Potency is the fitted concentration of half-maximal effect; tags give direction and shape of the fitted curve.

Row | Structure (SMILES) | Potency
1 | Cc1cc(C)cc(OCc2nnc(SCC(=O)N3CCN(c4ccccc4)CC3)o2)c1 | inconclusive [activator, single point]
2 | COc1cc(/C=N/N(C)c2ccccc2)ccc1O | inconclusive [activator, partial curve, poor fit]
3 | CCOc1ccc2nc(SCc3ccccc3C#N)sc2c1 | inconclusive [activator, partial curve, poor fit]
4 | c1ccc(-c2nc(NCC3CCCO3)c3oc4ccccc4c3n2)cc1 (stereo not given) | inactive
5 | COc1cc(CN2CCN(c3cccc(C)c3C)CC2)cc([N+](=O)[O-])c1O | inconclusive [activator, single point]
6 | COc1ccc(C2Nc3ccccc3C(=O)N2c2ccc(F)cc2)cc1CSc1ccccn1 (stereo not given) | inconclusive [activator, partial curve, poor fit]
7 | O=C(NC(=S)Nc1ccc2[nH]ncc2c1)c1ccccc1 | inactive
8 | CCCCCc1ccc(OCCOCCn2c[n+](C)c3ccccc32)c(CCCCC)c1 | inactive
9 | Cc1cc(/C=C2/SC(=O)NC2=O)c(C)n1-c1ccc(N2CCOCC2)cc1 | inactive
10 | Cn1ccc(NC(=O)c2ccc(Cl)cc2)n1 | inconclusive [activator, full curve, poor fit]
11 | COc1ccccc1NS(=O)(=O)c1cccc(NC(=O)c2cc3ccccc3oc2=O)c1 | inactive
12 | COc1ccccc1C(=O)N/C(=C\c1cn(S(=O)(=O)N(C)C)c2ccccc12)C(=O)NCCN1CCOCC1 | inactive
13 | CCOC(=O)c1sc2ncnc(NCC(c3cccs3)N(C)C)c2c1C (stereo not given) | inconclusive [activator, full curve, poor fit]
14 | O=c1c2c3c(sc2n(CCN2CCCCC2)c(=O)n1Cc1ccco1)CCCCC3 | inactive
15 | Cc1nnc(SCc2ccc3c(c2)OCO3)s1 | inconclusive [activator, partial curve, poor fit]
16 | S=C1SCN(Cc2ccccc2)CN1Cc1ccccc1 | inactive
17 | O=C(CCCC(=O)N(CC(=O)NC1CCCCC1)Cc1ccco1)Nc1ccccn1 | inactive
18 | Oc1ccccc1C1=Nc2nc3ccccc3n2C(c2ccccc2)C1 (stereo not given) | inconclusive [activator, full curve, poor fit]
19 | CCOc1ccc2c(c1)OC(c1ccc(OC)cc1)(C(F)(F)F)NC2=O (stereo not given) | inconclusive [activator, full curve, poor fit]
20 | Cc1cccc(C)c1OCCNC(=O)OCc1ccccc1 | inactive
21 | Cc1cc(C)cc(NC(=O)CSc2nnc(-c3ccccc3)n2N)c1 | inactive
22 | Nc1nnc(SCCCC(=O)c2ccc(Br)cc2)s1 | inconclusive [activator, partial curve, poor fit]
23 | CC(C)CCNC(=O)c1ccccc1SCC(=O)NC1CCCCCCC1 | inconclusive [activator, single point]

Row | Structure (SMILES) | Potency
24 | CC(C)(C)n1ncc2c(=O)n(CC(=O)c3ccccc3)cnc21 | inconclusive [activator, full curve, poor fit]
25 | COc1ccc(CNc2ncc(-c3ccccc3)n2C)c2ccccc12 | inactive
26 | COC(=O)c1ccc(-c2ccc(F)cc2)nc1C | inconclusive [activator, partial curve, poor fit]
27 | CCOC(=O)C1CCN(Cc2cnc(Oc3ccc(N)cc3)s2)CC1 | inconclusive [activator, full curve, poor fit]
28 | OCCN1CCN(C(c2cccs2)c2ccc3cccnc3c2O)CC1 (stereo not given) | inactive
29 | N#Cc1cnn2c(N)c(-c3ccc(Cl)cc3)cnc12 | inactive
30 | COc1ccc(/C=N/NC(=O)c2cnccn2)cc1O | inconclusive [activator, full curve, poor fit]
31 | CC(=O)Nc1ccc(C(=O)COC(=O)C2CC2)c(F)c1 | inconclusive [activator, full curve, poor fit]
32 | C=CCSc1nnc2c(n1)[nH]c1c(C)cccc12 | inconclusive [activator, partial curve, poor fit]
33 | Cc1ccc(NC(=O)c2cccnc2)c([N+](=O)[O-])c1 | inconclusive [activator, partial curve, poor fit]
34 | COc1ccc(C2=NN(C(C#N)c3ccc(OC)c(OC)c3)C(c3ccccc3)C2)cc1 (stereo not given) | inconclusive [activator, partial curve, poor fit]
35 | CC(/C=C/c1ccc2c(c1)OCO2)=N\NC(=O)c1cccc([N+](=O)[O-])c1 | inactive
36 | CC1CC(=O)c2cnc(NCC3CCCO3)nc2C1 (stereo not given) | inconclusive [activator, single point]
37 | COc1cc(CN2CCC(C(=O)N3CCN(c4ccccc4F)CC3)CC2)ccc1O | inconclusive [activator, full curve, poor fit]
38 | COc1ccc(-c2cc3ccc(O)cc3oc2=O)cc1 | inconclusive [activator, partial curve, poor fit]
39 | CCOc1ccc(NC(=O)c2cnc3scc(C)n3c2=O)cc1 | inconclusive [activator, partial curve, poor fit]
40 | COC(=O)c1sccc1N/N=C/c1ccc(OC)c(OC)c1OC | inconclusive [activator, partial curve, poor fit]
41 | CCOC(=O)Nc1ccc(OC)c([N+](=O)[O-])c1 | inactive
42 | O=C(Nc1ccc2ccccc2c1)c1ccc(Cl)cc1 | inconclusive [activator, partial curve, poor fit]
43 | Cc1ccc(C(=O)NNC(=O)c2ccco2)cc1 | inconclusive [activator, full curve, poor fit]
44 | Cc1ccc(Nc2nc(CSc3nnnn3C)cs2)cc1 | inconclusive [activator, full curve, poor fit]
45 | Cc1ccc(NC(=O)COC(=O)/C(=C/c2cccs2)c2cccs2)cc1S(=O)(=O)N(C)C | inconclusive [activator, partial curve, poor fit]
